Assay results: patent US20230028110A1 (ADAPTATE BIOTHERAPEUTICS, published 2023)

Experiments:
[1] = biological target: T1, TIGIT on TIGIT+ NFAT Jurkat cells (human); assay: cell-based or functional assay
T1 sequence (Q495A1 whole entry, looked up): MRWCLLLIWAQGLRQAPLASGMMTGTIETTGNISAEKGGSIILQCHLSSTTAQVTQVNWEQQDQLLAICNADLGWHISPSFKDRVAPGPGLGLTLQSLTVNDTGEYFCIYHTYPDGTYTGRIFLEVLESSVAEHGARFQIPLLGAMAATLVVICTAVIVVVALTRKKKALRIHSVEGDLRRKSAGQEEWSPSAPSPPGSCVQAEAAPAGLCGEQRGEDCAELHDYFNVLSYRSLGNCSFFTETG

[2] = biological target: T2, L1 (DV1-GV4), soluble human Vδ1/Vγ4 γδ TCR heterodimer in leucine zipper format (human); assay: SPR (Reichert 4SPR), antibody on Protein A chip, antigen flown over
T2 construct: Biotinylated in the DELFIA ranking; also called Antigen L1 (TRDV1/TRGV4); human DV1-GV4; not shown: gamma chain: Vγ4 (TRGV4) domain on a TCR constant region, leucine zipper, histidine tag

Recombinant human TIGIT = biological target: T3, Recombinant human TIGIT (human, UniProt Q495A1 22-141); assay: as above
T3 construct: also called T cell immunoreceptor with Ig and ITIM domains
T3 sequence (looked up): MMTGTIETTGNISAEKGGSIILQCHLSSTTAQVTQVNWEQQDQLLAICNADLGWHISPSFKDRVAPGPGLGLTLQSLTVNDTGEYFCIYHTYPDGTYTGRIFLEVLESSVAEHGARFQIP

EC50 (read off the curve): TIGIT/CD155 Blockade Reporter Assay, luminescence RLU [1]: ~6 nM
Kd [2]: 1.9 nM
Kd (Recombinant human TIGIT): 0.3 nM
B1: Anti-Vδ1xAnti-TIGIT (ADT1-4-2xtiragolumab) bispecific antibody (bispecific antibody, human IgG1, kappa)
light: DIVMTQSPDSLAVSLGERATINCKSSQTVLYSSNNKKYLAWYQQKPGQPPNLLIYWASTRESGVPDRFSGSGSGTDFTLTISSLQAEDVAVYYCQQYYSTPFTFGPGTKVEIKRTVAAPSVFIFPPSDEQLKSGTASVVCLLNNFYPREAKVQWKVDNALQSGNSQESVTEQDSKDSTYSLSSTLTLSKADYEKHKVYACEVTHQGLSSPVTKSFNRGEC
heavy: EVQLQQSGPGLVKPSQTLSLTCAISGDSVSSNSAAWNWIRQSPSRGLEWLGKTYYRFKWYSDYAVSVKGRITINPDTSKNQFSLQLNSVTPEDTAVFYCTRESTTYDLLAGPFDYWGQGTLVTVSSASTKGPSVFPLAPSSKSTSGGTAALGCLVKDYFPEPVTVSWNSGALTSGVHTFPAVLQSSGLYSLSSVVTVPSSSLGTQTYICNVNHKPSNTKVDKKV[letters of human IgG1 Fc with L235A G237A (EU numbers) omitted]GGGGGSGGGGSGGGGSEVQLQQSGPGLVKPSQTLSLTCAISGDSVSSKSAAWNWIRQSPSRGLEWLGRTYYRSKWSTDYAASVKSRITINPDTSKNQLSLQLNSVTPEDTAVYYCARTWVGYVDRWGQGTLVTVSSGGGGSGGGGSGGGGSDIQMTQSPPALSASVGDRVTITCRASQDINDWLAWYQHKPGKAPKLLIYDASSLESGVPLRFSGSGSGTEFTLTISSLQPDDFATYYCQQKYSAPQVTFGQGTRLEIK
notes: also called Vδ1-TIGIT bispecific antibody
